# Some of the results follow.
# Experiments:
# [1] = test system: HSkMC (human skeletal muscle cells); experiment: cytotoxicity call (relative viability < 0.9); settings: 10 µM
# [2] = test system: S. aureus RN4220; experiment: growth inhibition call (relative growth <= 0.2); settings: 50 µM
Compound,cytotoxicity call [1],growth inhibition call [2]
CC(C)N1CC=C[C@@]23O[C@@H]4C=CCOC(=O)[C@@H]4[C@H]2C(=O)N(CCCCCO)[C@@H]3C1=O,inactive,inactive
C[C@H]1O[C@@H](n2cc(F)c(=O)[nH]c2=O)[C@H](O)[C@@H]1O,inactive,inactive
C[C@@H]1CN([C@@H](C)CO)C(=O)c2cccc(NS(=O)(=O)c3ccc(Cl)cc3)c2O[C@H]1CN(C)Cc1ccc(C(=O)Nc2ccccc2N)cc1,inactive,inactive
C[C@H]1CN([C@@H](C)CO)C(=O)c2cccc(NS(=O)(=O)c3ccc(F)cc3)c2O[C@H]1CN(C)S(C)(=O)=O,inactive,inactive
O=C(C[C@@H]1C[C@@H]2c3cc(NC(=O)Nc4ccc(C(F)(F)F)cc4)ccc3O[C@@H]2[C@@H](CO)O1)NCc1ccc(Cl)cc1,inactive,inactive
C[C@@H]1CN([C@@H](C)CO)C(=O)c2cc(NC(=O)C3CCCCC3)ccc2O[C@@H](C)CCCCO[C@@H]1CN(C)CC1CCCCC1,inactive,inactive
Cc1ccc(S(=O)(=O)Nc2ccc3c(c2)C(=O)N([C@@H](C)CO)C[C@H](C)[C@@H](CN(C)Cc2ccc4c(c2)OCO4)OCCCC[C@@H](C)O3)cc1,inactive,inactive
C[C@@H]1CN([C@H](C)CO)S(=O)(=O)c2ccc(C#CC3(O)CCCC3)cc2O[C@@H]1CN(C)C(=O)c1ccccc1,inactive,inactive
Cc1ccc(S(=O)(=O)N(C)C[C@H]2OCCCC[C@@H](C)Oc3ccc(NC(=O)C4CCCCC4)cc3C(=O)N([C@@H](C)CO)C[C@H]2C)cc1,inactive,inactive
NC(=O)COc1ccccc1,inactive,inactive
O=C(COc1ccc(S(=O)(=O)N2CCOCC2)cc1)N1CCOCC1,inactive,inactive
CO[C@@H]1CN(C)C(=O)c2ccc(NS(C)(=O)=O)cc2OC[C@@H](C)N(C(=O)C2CCCCC2)C[C@H]1C,inactive,inactive
C[C@@H]1CN([C@H](C)CO)C(=O)CCCn2cc(nn2)CO[C@H]1CN(C)S(=O)(=O)c1ccc2ccccc2c1,inactive,inactive
Cc1ccc(S(=O)(=O)N(C)C[C@H]2Oc3ccc(NC(=O)NC(C)C)cc3C(=O)N([C@@H](C)CO)C[C@H]2C)cc1,inactive,inactive
C[C@@H]1CN([C@@H](C)CO)C(=O)c2cc(NC(=O)CCN3CCOCC3)ccc2O[C@@H]1CN(C)Cc1ccncc1,inactive,inactive
C[C@@H]1CCCCO[C@@H](CN(C)Cc2ccc(C(F)(F)F)cc2)[C@H](C)CN([C@@H](C)CO)C(=O)c2cc(NS(=O)(=O)c3cccs3)ccc2O1,inactive,inactive
C[C@H]1CN([C@@H](C)CO)C(=O)c2cccc(NC(=O)Nc3ccc(C(F)(F)F)cc3)c2O[C@H]1CN(C)C(=O)NC1CCCCC1,inactive,active
CC(C)c1ccc2c(ccc[n+]2C)c1,inactive,inactive
N=C(N)NCCCCNC(=N)N.O=S(=O)(O)O,inactive,inactive
CO[C@H]1CN(C)C(=O)c2ccc(NC(=O)CC(F)(F)F)cc2OC[C@H](C)N(S(=O)(=O)c2cn(C)cn2)C[C@H]1C,inactive,inactive

Compound,cytotoxicity call [1],growth inhibition call [2]
C[C@@H]1CN([C@H](C)CO)C(=O)c2cccc(NC(=O)Nc3cccc4ccccc34)c2O[C@@H]1CN(C)S(=O)(=O)c1ccc(Cl)cc1,active,inactive
COCC#Cc1ccc([C@@H]2[C@@H](CO)N3C(=O)CN(C(=O)CN4CCOCC4)C[C@H]23)cc1,inactive,inactive
NC1CCN(C(=O)NC2CCCCC2)CC1,inactive,inactive
C[C@H]1CN([C@@H](C)CO)C(=O)c2cc(NC(=O)Cc3ccccc3)ccc2O[C@@H]1CN(C)C(=O)Nc1ccc(C(F)(F)F)cc1,inactive,inactive
O=C(C[C@H]1C[C@H]2c3cc(NC(=O)Nc4ccc(C(F)(F)F)cc4)ccc3O[C@H]2[C@H](CO)O1)NCCc1ccccc1,inactive,inactive
CCCCC(=O)C1CCC(c2ccc(Cl)cc2)CC1 (stereo not drawn),inactive,inactive
C[C@@H]1CN([C@@H](C)CO)C(=O)c2cc(NC(=O)Nc3ccc(C(F)(F)F)cc3)ccc2O[C@@H](C)CCCCO[C@@H]1CN(C)Cc1ccc(C(F)(F)F)cc1,inactive,inactive
COc1ccc(NC(=O)Nc2ccc3c(c2)CC(=O)N([C@H](C)CO)C[C@H](C)[C@@H](CN(C)Cc2ccc(-c4ccccc4)cc2)O3)cc1,active,inactive
C[C@@H]1CN([C@@H](C)CO)C(=O)Cc2cc(NC(=O)CCN3CCOCC3)ccc2O[C@H]1CN(C)S(=O)(=O)c1cn(C)cn1,inactive,inactive
COc1ccccc1S(=O)(=O)N[C@H]1C=C[C@H](CC(=O)N2CCN(C)CC2)O[C@H]1CO,inactive,inactive
C[C@@H]1CCCCO[C@H](CN(C)C(=O)Nc2cccc3ccccc23)[C@H](C)CN([C@@H](C)CO)C(=O)c2cc(NC(=O)c3ccccc3)ccc2O1,inactive,inactive
CCc1nc2ccc(C(=O)Nc3cc(-c4ccccc4)ccc3OC)cn2c1N(C)C(=O)Cc1ccccc1,inactive,inactive
Cc1ccc(S(=O)(=O)N(C)C[C@H]2OCCCC[C@H](C)Oc3ccc(NC(=O)NC4CCCCC4)cc3C(=O)N([C@@H](C)CO)C[C@H]2C)cc1,inactive,inactive
C[C@@H]1CCCCO[C@@H](CN(C)C(=O)Nc2cccc3ccccc23)[C@@H](C)CN([C@H](C)CO)C(=O)c2cc(NC(=O)Nc3ccc(C(F)(F)F)cc3)ccc2O1,active,inactive
C[C@H](O)C#Cc1ccc2c(c1)O[C@@H](CN(C)C(=O)C1CCCCC1)[C@H](C)CN([C@H](C)CO)S2(=O)=O,inactive,inactive
CCCCC1C(=O)N(c2ccccc2)N(c2ccccc2)C1=O,inactive,inactive
O.O=C(O)C1C(O)CCC2CN3CCc4c([nH]c5ccccc45)C3CC21 (stereo not drawn),inactive,inactive
C=CC[C@H](Nc1ccccc1C)c1ccc(Cl)cc1,inactive,inactive
COc1ccccc1CN1C(=O)c2ccccc2[C@](Cc2ccccc2I)(C(=O)O)[C@@H]1c1ccc(CO)cc1,inactive,inactive
